{"source": "PubChem BioAssay AID1345083", "about": "(National Center for Advancing Translational Sciences (NCATS), 2018)", "note": "The campaign covered roughly 94,000 compounds. About 6,200 (6.6%) were called active. The shares of active, inactive and inconclusive entries below differ from those in the screen. Calls follow the shape of the dose curve; as a rule, active = well fitted inhibition curve with a large enough effect; inconclusive = small, poorly fitted or top-dose-only effect; inactive = flat fitted curve, though single readings scatter. A potency beside an inconclusive call is a rough fit, not a confirmed value. Potency is read from the fitted curve at half-maximal effect; tags tell the direction and shape of the fitted curve.", "data": [{"experiment": "Cytotoxic Profiling in HEK 293 Cell Line of Diverse Libraries Using Quantitative High-Throughput Screening; also: nearly all actives have a fitted effect of over 60% in size", "conditions": "HEK 293 viability, ATP luminescence (CellTiter-Glo), 48-72 h; series mostly up to 115 µM", "outline": "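HEK 293 cells at 250 cells/well were exposed to compounds by pintool transfer for 48 or 72 hr at 37 degree Celsius, 5% CO2. Viability was read as ATP-coupled luminescence with CellTiter-Glo after 10 min at room temperature.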", "values": [{"smiles": "Cc1ccc(-c2cc(C(=O)N3CCC4(CC(=O)NC4=O)C3)n[nH]2)o1", "note": "(stereo not drawn)", "Potency": "inactive"}, {"smiles": "N#Cc1cccnc1-c1ccc(C(=O)N2CCC(NC(=O)c3ccc(C(F)(F)F)cc3)CC2)cc1", "Potency": "inconclusive: 44.7 µM [inhibitor, partial curve, poor fit]"}, {"smiles": "COCCCNC(=O)[C@@H]1CCCN1c1nccc(Nc2ccccc2OC)n1", "Potency": "inactive"}, {"smiles": "COc1ccc(-n2cc(CN3C[C@@H](C)O[C@@H](C)C3)c(-c3cccc(F)c3)n2)cc1", "Potency": "inconclusive: 50.1 µM [inhibitor, partial curve, poor fit]"}, {"smiles": "CO[C@@H]1CO[C@H]2[C@@H]1OC[C@@H]2NC(=S)Nc1ccc(Cl)cc1", "Potency": "inactive"}, {"smiles": "O=C(NC1CCCN(c2cc(-c3ccccc3)[nH]n2)C1)c1ccc(Br)cc1", "note": "(stereo not drawn)", "Potency": "active: 22.4 µM"}, {"smiles": "COc1cccc(-c2cccc(C(=O)N3CCN([S+](=O)([O-])c4ccccc4)CC3)c2)c1", "Potency": "active: 35.5 µM"}, {"smiles": "O=C1Nc2ccccc2OCC12CCN([S+](=O)([O-])c1cccc(C(F)(F)F)c1)CC2", "Potency": "inconclusive: 89.1 µM [inhibitor, single point]"}, {"smiles": "CN(Cc1cccc(F)c1)Cc1cccn1C", "Potency": "inactive"}, {"smiles": "CC1(C)[C@H](Cc2cc(CO)on2)C[C@@H]1NS(=O)(=O)c1ccccc1", "Potency": "inconclusive: 39.8 µM [inhibitor, partial curve, poor fit]"}, {"smiles": "CC1(C(=O)NCc2ccncc2)CCCc2cnc(Nc3ccccc3)nc21", "note": "(stereo not drawn)", "Potency": "inactive"}, {"smiles": "O=C(C1CCN(c2nccc(Nc3ccccc3Cl)n2)CC1)N1CCN(Cc2ccccc2)CC1", "Potency": "inconclusive: 44.7 µM [inhibitor, partial curve, poor fit]"}, {"smiles": "CN(C)C(=O)CO[C@H]1COCCN(Cc2ccccn2)C1", "Potency": "inactive"}, {"smiles": "COc1ccccc1-c1ccc(CN2CCN(c3cc(Cl)ncn3)C(=O)C2)cc1", "Potency": "active: 44.7 µM"}, {"smiles": "COc1ccc(F)cc1-c1cccc(C(=O)NCCNC(=O)c2ccc(C)cc2)c1", "Potency": "inconclusive: 35.5 µM [inhibitor, full curve, poor fit]"}, {"smiles": "O=C(NC1CCCN(c2cc(-c3ccccc3)[nH]n2)C1)c1cc(F)ccc1Cl", "note": "(stereo not drawn)", "Potency": "inconclusive: 39.8 µM [inhibitor, full curve, poor fit]"}, {"smiles": "CCCc1ccccc1OCC(=O)c1ccc2c(c1)N(CC(=O)NCC1CC1)C(=O)CO2", "Potency": "inactive"}, {"smiles": "COc1ccc(-n2nc(C)c([C@@H]3C=C[C@@H](NCc4ccc(N(C)C)cc4)C3)c2C)cc1", "Potency": "inconclusive: 50.1 µM [inhibitor, partial curve, poor fit]"}, {"smiles": "COc1ccc(C2(C(=O)N3CC4CC(C3)[C@H]3CCCC(=O)N3C4)CCCCC2)cc1", "note": "(stereo partly drawn)", "Potency": "inactive"}, {"smiles": "COC(=O)Nc1cc(-c2cccnc2)nn1-c1ccccc1", "Potency": "inconclusive: 100 µM [inhibitor, partial curve]"}, {"smiles": "O=C1CCN(C[C@@H](O)COCc2ccccc2)c2cc3c(cc2CN1C1CCCC1)OCO3", "Potency": "inconclusive: 50.1 µM [inhibitor, partial curve, poor fit]"}, {"smiles": "Cc1ccc(C(=O)Nc2ccc3ncnc(N4CCCCC4)c3c2)s1", "Potency": "inconclusive: 44.7 µM [inhibitor, partial curve, poor fit]"}, {"smiles": "O=C(Cc1c[nH]c2ncc(-c3cccnc3)cc12)Nc1ccccc1", "Potency": "inconclusive: 112 µM [inhibitor, partial curve]"}, {"smiles": "CNC(=O)c1noc(CN2CCCC(CCc3ccccc3F)C2)n1", "note": "(stereo not drawn)", "Potency": "inactive"}, {"smiles": "CCC(=O)N1CCC2(CC1)CC(N(CC)CC)CCO2", "note": "(stereo not drawn)", "Potency": "inactive"}, {"smiles": "CC1(C(=O)NCC2CC2)CCCc2cnc(NCc3ccccc3)nc21", "note": "(stereo not drawn)", "Potency": "inconclusive: 89.1 µM [inhibitor, partial curve]"}, {"smiles": "CC(c1ccc2c(c1)OCCO2)N(C)C(=O)c1ccc2nccn2c1", "note": "(stereo not drawn)", "Potency": "inconclusive: 44.7 µM [inhibitor, partial curve, poor fit]"}, {"smiles": "Cc1onc(-c2cnn(C)c2NCCc2ccccc2)c1C(=O)NCc1ccoc1", "Potency": "inconclusive: 100 µM [inhibitor, partial curve, poor fit]"}, {"smiles": "COCC1CN(Cc2cccc3[nH]ccc23)CC12CCNCC2", "note": "(stereo not drawn)", "Potency": "inconclusive: 63.1 µM [inhibitor, partial curve, poor fit]"}, {"smiles": "CC(C)NC(=O)C1CCCN(c2nc3ncccc3o2)C1", "note": "(stereo not drawn)", "Potency": "inactive"}, {"smiles": "O=C(Cc1ccc2c(c1)OCO2)N1CCNc2cnc(Nc3cccc(F)c3)nc2C1", "Potency": "inconclusive: 89.1 µM [inhibitor, partial curve, poor fit]"}, {"smiles": "O=C(NCc1cccc(F)c1)C1CN(C2CCCCC2)C(=O)N1", "note": "(stereo not drawn)", "Potency": "inactive"}, {"smiles": "COc1ccc(Cn2c(=O)c(C(=O)NCc3cccc(Cl)c3)nc3cccnc32)cc1", "Potency": "inconclusive: 50.1 µM [inhibitor, partial curve, poor fit]"}, {"smiles": "Cc1ccc(CNC(=O)c2ccc3c(c2)CN(C2CCC2)CCO3)cc1", "Potency": "inactive"}, {"smiles": "O=C(Cc1c(F)cccc1Cl)NC1CCN(c2cc(-c3ccccc3)[nH]n2)CC1", "Potency": "inconclusive: 28.2 µM [inhibitor, partial curve, poor fit]"}, {"smiles": "CCOC(=O)[C@H]1[C@@H](O)C(=O)N(Cc2ccccc2)C12CCN(C(=O)Cc1ccccc1)CC2", "Potency": "inactive"}, {"smiles": "COc1ccc2c(c1)c(CN1CCC(F)(C(=O)NCc3ccccc3)CC1)cn2C", "Potency": "inconclusive: 56.2 µM [inhibitor, partial curve, poor fit]"}, {"smiles": "Cc1cn2nc(C(=O)NCc3ccc(F)cc3)cc2c(N(C)Cc2ccccc2)n1", "Potency": "inconclusive: 39.8 µM [inhibitor, full curve, poor fit]"}, {"smiles": "COc1ccc(OCc2nc(C(=O)N3CCC4(CCCN(C)C4=O)C3)co2)cc1", "note": "(stereo not drawn)", "Potency": "inactive"}, {"smiles": "CCCC1(CO)CCCN(Cc2cc(-c3ccc(C)cc3)no2)C1", "note": "(stereo not drawn)", "Potency": "inconclusive: 50.1 µM [inhibitor, partial curve, poor fit]"}, {"smiles": "COc1cccc(CC(=O)NC2CCN(c3cc(-c4ccccc4)[nH]n3)C2)c1", "note": "(stereo not drawn)", "Potency": "inconclusive: 35.5 µM [inhibitor, full curve]"}, {"smiles": "O=C(NC1CCN(c2ccc3nnc(-c4ccccc4)n3n2)CC1)c1ccccc1", "Potency": "inconclusive: 89.1 µM [inhibitor, single point]"}, {"smiles": "CCOC(=O)[C@H]1C[C@]2(CCCCN(CCOC(C)=O)C2=O)N(C(=O)OCC)[C@H]1c1ccco1", "Potency": "inconclusive: 89.1 µM [inhibitor, single point]"}, {"smiles": "O=C1CCC2(C(=O)NCc3ccc(F)cc3)CCCC=C2N1C1CCCC1", "note": "(stereo not drawn)", "Potency": "inconclusive: 44.7 µM [inhibitor, partial curve, poor fit]"}, {"smiles": "COc1ccc(-c2ccc3c(n2)CN(Cc2csc(C)n2)C(=O)CO3)cc1F", "Potency": "inconclusive: 112 µM [inhibitor, partial curve]"}, {"smiles": "O=S(=O)(c1ccc(F)cc1)N1CCC(OC2CCN(Cc3ccccc3)CC2)CC1", "Potency": "inconclusive: 63.1 µM [inhibitor, partial curve, poor fit]"}, {"smiles": "COc1ccc(-c2ccc(C(=O)N3CCC(NC(=O)c4ccccc4Cl)CC3)cc2)nn1", "Potency": "inconclusive: 56.2 µM [inhibitor, partial curve, poor fit]"}, {"smiles": "O=C(NCc1ccc(F)cc1)C1CCN(c2ccnc3ccnn23)CC1", "Potency": "inconclusive: 15.8 µM [inhibitor, full curve, poor fit]"}, {"smiles": "O=C1c2ccccc2OCC2(CCN([S+](=O)([O-])c3ccccc3)C2)N1[S+](=O)([O-])c1ccccc1", "note": "(stereo not drawn)", "Potency": "inconclusive: 17.8 µM [inhibitor, full curve, poor fit]"}, {"smiles": "O=C(c1ccc2ncccc2c1)N1CCC(c2nc(CCOCC3CCOCC3)no2)C1", "note": "(stereo not drawn)", "Potency": "inconclusive: 89.1 µM [inhibitor, single point]"}, {"smiles": "COc1ccc(F)cc1-c1cccc(C(=O)NCCNC(=O)C2CCCC2)c1", "Potency": "inconclusive: 63.1 µM [inhibitor, partial curve, poor fit]"}, {"smiles": "Cc1ccc(-c2noc(-c3nc(C(C)C)no3)n2)cc1", "Potency": "inactive"}, {"smiles": "O=C(Cn1ccn2nc(-c3ccc(F)cc3)c(CO)c2c1=O)Nc1cccc(F)c1", "Potency": "inconclusive: 50.1 µM [inhibitor, partial curve, poor fit]"}, {"smiles": "CC(=O)Nc1cccc(-c2ncc3c(n2)OCCN(Cc2ccccc2)C3=O)c1", "Potency": "inconclusive: 100 µM [inhibitor, partial curve]"}, {"smiles": "O=C1CCN(C(=O)CCc2ccccc2)CCCC(c2nc(-c3ccccc3)no2)CCN1", "note": "(stereo not drawn)", "Potency": "inconclusive: 63.1 µM [inhibitor, partial curve, poor fit]"}, {"smiles": "COc1ccc(C(=O)Nc2ccc(-c3noc([C@@H]4CCCN4CC4CCCCC4)n3)cn2)cc1", "Potency": "active: 44.7 µM"}, {"smiles": "CSc1ccc(-c2cccc(C(=O)NCC(=O)NCCc3ccccc3)c2)cc1", "Potency": "inconclusive: 10 µM [inhibitor, full curve, poor fit]"}, {"smiles": "Cc1cc(N2CCCC(Cn3cc(Cc4ccccc4)nn3)C2)nc(N)n1", "note": "(stereo not drawn)", "Potency": "inconclusive: 10 µM [inhibitor, full curve, poor fit]"}, {"smiles": "CNC(=O)c1cccc(-c2cnc3[nH]cc(CC(=O)Nc4cccc(F)c4)c3c2)c1", "Potency": "inconclusive: 100 µM [inhibitor, partial curve]"}, {"smiles": "COc1ccc(CN2C(=O)CO[C@H]3CN(C4CCC4)C[C@H]32)cc1", "Potency": "inconclusive: 100 µM [inhibitor, partial curve, poor fit]"}, {"smiles": "COc1cccc(NC(=O)Cn2c(=O)n(-c3ccc(F)cc3)c(=O)c3c2cc(C)n3C)c1", "Potency": "inconclusive: 89.1 µM [inhibitor, partial curve]"}, {"smiles": "Cc1csc(NC(=O)c2nc3c(o2)CCN(CC2CCCC2)CC3)n1", "Potency": "inconclusive: 100 µM [inhibitor, partial curve]"}, {"smiles": "CS(=O)(=O)N1CCC(C2CCN(Cc3ccc(C#N)cc3)C2)CC1", "note": "(stereo not drawn)", "Potency": "inconclusive: 44.7 µM [inhibitor, partial curve]"}]}]}
